Test results as given in PubChem BioAssay AID485281 (National Center for Advancing Translational Sciences (NCATS), 2010).
Screen size: about 350,000 compounds; about 260 (0.074%) were called active. The inconclusive results got no clear call from the source; some entries with a clear call stand among them for comparison. Calls come from the whole dose curve; as a rule, active = well fitted inhibition curve with a large enough effect; inconclusive = small, poorly fitted or top-dose-only effect; inactive = no such curve, though single readings can be large or run the other way. Potencies of inconclusive entries are doubtful fits and often do not repeat.

These molecules were tested against Ferritin light chain (Equus caballus) (UniProt P02791) (assay: qHTS Assay for Identification of Novel General Anesthetics). Details: apoferritin/1-aminoanthracene competitive binding, fluorescence; series mostly up to 77.5 µM.
Outline: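 10 uM apoferritin + 50% sat. 1-AMA, PBS; cpd 10 min RT; Ex380/Em535 endpoint; normalized to free probe vs complex; 4-param Hill fit; propofol titration as pos. ctrl.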
Note: nearly all actives have a fitted effect of over 20% in size.
Potency is the fitted concentration of half-maximal effect; tags give direction and shape of the fitted curve.

Chain of UniProt P02791 (P02791 whole entry, looked up): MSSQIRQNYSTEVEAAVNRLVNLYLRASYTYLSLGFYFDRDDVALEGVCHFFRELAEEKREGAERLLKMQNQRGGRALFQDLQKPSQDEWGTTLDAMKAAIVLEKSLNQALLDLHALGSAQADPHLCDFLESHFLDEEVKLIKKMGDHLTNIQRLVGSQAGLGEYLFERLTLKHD

Potency, inactive:
COc1cccc(-c2ccc3c(N)c(C(=O)c4ccc(Cl)cc4)sc3n2)c1, COc1ccc(C(=O)/C=C/C(=O)N(CC(=O)NC2CCCCC2)Cc2cccs2)c(O)c1, O=C(O)Cc1csc(NC(=O)c2ccco2)n1, O=C(Cc1ccc(-n2c(=O)c3ccccc3n(Cc3ccc(F)cc3)c2=O)cc1)NCC1CCCO1 (configuration not stated), O=C(Nc1ccc(C(F)(F)F)cc1)C1CCCN(c2cnccn2)C1 (configuration not stated), O=c1c(S(=O)(=O)c2ccccc2)cn(Cc2ccccc2)c2cc(N3CCOCC3)c(F)cc12, Cc1cc(Nc2cccc(Cl)c2)nc2ccc(NC(=O)c3cccnc3)cc12, Cc1cccc(OCCn2c(=O)sc3ccccc32)c1, COc1ccc(C(=O)O)cc1NC(=S)NC(=O)c1ccc(-c2ccc(Cl)cc2)o1

Potency, inconclusive:
CCc1cccc(NC(=O)Cn2nc(-c3ccc(OC)cc3)ccc2=O)c1 7.08 µM [inhibitor, full curve], O=C(Nc1nc2n(n1)C(c1ccccc1)C=C(c1ccccc1)N2)c1ccc(Cl)c([N+](=O)[O-])c1 (configuration not stated) 28.2 µM [inhibitor, single point], CC(C)(C)c1ccc(/C=C/C(=O)N2CCCCC2)cc1 35.5 µM [inhibitor, single point], O=c1oc2ccccc2c(Nc2ccc(O)cc2)c1[N+](=O)[O-] 35.5 µM [inhibitor, partial curve], COC(=O)CSc1nc(-c2cccs2)ccc1C#N 44.7 µM [inhibitor, single point], N#Cc1c2n(c(=S)n(-c3ccccc3[N+](=O)[O-])c1=O)CCCCC2 15.8 µM [inhibitor, partial curve], CCN(CC)C(=S)Sc1c(-c2ccccc2)c2cc(Cl)ccc2[nH]c1=O 39.8 µM [inhibitor, single point], Cc1cccc(-c2c3c(=O)n(C)c(=O)n(C)c3cn2-c2ccccc2O)c1 39.8 µM [inhibitor, single point], CN1CCN(CC(=O)c2cc(C(C)(C)C)c(O)c(C(C)(C)C)c2)CC1 50.1 µM [inhibitor, single point], Cc1nn(Cc2ccccc2)c(C)c1NC(=O)c1cc(-c2cccs2)on1 31.6 µM [inhibitor, partial curve], COc1ccc2c(CC(=O)OCC(=O)c3ccc(F)cc3)coc2c1 39.8 µM [inhibitor, partial curve], CC1CN(C(=O)Nc2ccc(C(=O)NCc3cccc(F)c3)cc2)c2ccccc2S1 (configuration not stated) 7.94 µM [inhibitor, partial curve], O=C(Nc1ccc(NC(=O)C2CCCCC2)nc1)c1cccs1 31.6 µM [inhibitor, partial curve], COc1ccccc1NC(=O)c1csc2c1CCCC2 8.91 µM [inhibitor, partial curve], CCc1ccccc1NC(=O)Nc1cccn(Cc2ccccc2F)c1=O 3.55 µM [inhibitor, full curve], COC(=O)c1ccc(CSc2nnc(Nc3ccc(C)cc3)s2)o1 22.4 µM [inhibitor, partial curve], O=C(Nc1ccc(Cl)cc1)N1CCCN(Cc2ccc(F)cc2)C1 39.8 µM [inhibitor, single point], NC(N)=N/N=C/c1ccc(OCc2ccc(Cl)cc2Cl)cc1 14.1 µM [inhibitor, partial curve], COc1ccc(C2=CC(=O)CC(c3ccc(OC)cc3)C2)cc1 (configuration not stated) 15.8 µM [inhibitor, partial curve], Cc1[nH]c2ccc(C(=O)NCCCN3CCOCC3)cc2c1C 0.316 µM [inhibitor, full curve], Oc1ccc(C[C@H]2CNC(=S)N2CCc2cc(C(F)(F)F)cc(C(F)(F)F)c2)cc1 22.4 µM [inhibitor, partial curve], C=Cc1ccc(Cn2nc(-c3ccc(C)c(S(=O)(=O)N(CC)CC)c3)ccc2=O)cc1 25.1 µM [inhibitor, partial curve], COc1cccc(OC)c1C(=O)Nc1ccc(N2CCCC2)cc1 31.6 µM [inhibitor, single point], Cn1c(=O)c2cn3c(c2n(C)c1=O)C(c1ccccc1)CC(c1ccccc1)=N3 (configuration not stated) 2.82 µM [inhibitor, partial curve, poor fit], COc1cccc(CNc2cccc(C(F)(F)F)c2)c1O 20 µM [inhibitor, partial curve], Cc1c(Br)c([N+](=O)[O-])nn1CC(=O)Nc1nccs1 25.1 µM [inhibitor, partial curve], Cc1ccc(NC(=O)CSc2nc3n[nH]c(C)c3c(=N)n2-c2cccc(C)c2)cc1 39.8 µM [inhibitor, partial curve], O=C(CN1C(=O)COc2ccc(S(=O)(=O)N3CCCCCC3)cc21)NCc1ccc(F)cc1 35.5 µM [inhibitor, partial curve], O=C(Cc1n[nH]c(=O)c2ccccc12)OCC(=O)c1ccc2c(c1)OCCO2 39.8 µM [inhibitor, single point], CCC(=O)c1ccc(N2CCCCCC2)c(F)c1 22.4 µM [inhibitor, partial curve], COc1ccc(CCNC(=O)CCC(=O)n2ncc3ccc(Cl)cc32)cc1OC 25.1 µM [inhibitor, partial curve], O=C(NCCc1ccccc1)c1cccc(Br)c1 28.2 µM [inhibitor, partial curve], COc1ccc(F)cc1S(=O)(=O)NCCc1sc2nc(-c3ccc(F)cc3)nn2c1C 35.5 µM [inhibitor, single point]
